# The campaign covered roughly 310,000 compounds. About 14,000 (4.5%) showed an effect of 50% or more. Effects have a minus sign here. The list shows a part of the results.
# Biological target: human ether-à-go-go-related gene (hERG) potassium channel (human, UniProt Q12809)
# Assay: primary screen, population patch clamp on CHO cells stably expressing hERG
# 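Note: peak tail current of the secondary pulse compared with the same well before compound.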
# Sequence of human ether-à-go-go-related gene (hERG) potassium channel (Q12809 whole entry, looked up): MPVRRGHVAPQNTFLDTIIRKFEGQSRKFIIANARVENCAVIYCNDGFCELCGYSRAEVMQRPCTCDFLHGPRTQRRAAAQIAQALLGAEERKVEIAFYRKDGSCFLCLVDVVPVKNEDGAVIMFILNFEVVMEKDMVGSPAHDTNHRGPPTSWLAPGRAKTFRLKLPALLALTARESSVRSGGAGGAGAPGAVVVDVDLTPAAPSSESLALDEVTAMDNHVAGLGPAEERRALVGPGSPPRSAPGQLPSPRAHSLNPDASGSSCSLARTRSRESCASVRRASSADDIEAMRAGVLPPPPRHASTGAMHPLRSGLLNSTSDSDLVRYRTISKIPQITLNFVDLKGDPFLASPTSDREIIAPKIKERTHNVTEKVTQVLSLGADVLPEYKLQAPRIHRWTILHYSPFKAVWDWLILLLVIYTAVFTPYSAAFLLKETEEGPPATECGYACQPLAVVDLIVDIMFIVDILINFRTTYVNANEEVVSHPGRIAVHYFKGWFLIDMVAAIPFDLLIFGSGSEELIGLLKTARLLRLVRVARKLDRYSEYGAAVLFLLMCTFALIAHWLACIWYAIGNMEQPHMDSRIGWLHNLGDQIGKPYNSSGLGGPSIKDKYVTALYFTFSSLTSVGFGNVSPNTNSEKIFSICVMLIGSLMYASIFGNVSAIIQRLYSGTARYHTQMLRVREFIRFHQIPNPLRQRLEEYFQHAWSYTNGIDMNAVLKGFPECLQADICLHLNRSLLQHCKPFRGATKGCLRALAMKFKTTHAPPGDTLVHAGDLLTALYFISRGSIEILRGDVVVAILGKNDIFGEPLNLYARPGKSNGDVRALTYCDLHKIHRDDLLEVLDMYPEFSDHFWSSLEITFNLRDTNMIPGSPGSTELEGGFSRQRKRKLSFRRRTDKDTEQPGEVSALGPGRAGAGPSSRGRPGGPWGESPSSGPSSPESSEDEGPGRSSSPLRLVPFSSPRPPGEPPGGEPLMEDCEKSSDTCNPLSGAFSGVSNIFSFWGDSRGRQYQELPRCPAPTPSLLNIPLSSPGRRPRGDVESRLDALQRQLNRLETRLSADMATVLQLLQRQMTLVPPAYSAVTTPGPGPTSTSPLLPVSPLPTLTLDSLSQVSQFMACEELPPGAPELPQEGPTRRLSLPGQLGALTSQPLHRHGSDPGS
row,Compound,"hERG current change (%, negative = inhibition) at 10uM [%]"
1,O=C(CN1CCCCC1)N/N=C/c1cc2ccccc2nc1Cl,-27.9
2,O=C1CC(Sc2nnc(-c3ccccc3O)o2)C(=O)N1c1ccccc1 (stereo not drawn),10.6
3,COc1ccc(S(=O)(=O)NC2CC(=O)N(c3cccc(F)c3)C2)cc1OC (stereo not drawn),6.15
4,COc1cc(NC(=S)NCCO)c(OC)cc1Cl,2.71
5,CCCn1c(N)c(C(=O)CSc2nc3ccccc3c(=O)n2Cc2ccccc2)c(=O)[nH]c1=O,7.22
6,COc1cc(OC)c(NC(=O)C2CCCN2C(=O)OCc2ccccc2)cc1Cl (stereo not drawn),-0.267
7,Nc1cccc(Oc2cnccn2)c1,13.6
8,COc1ccc([C@H]2CC(=O)C=C(c3ccc(F)cc3OCc3ccccc3)C2)cc1,-1.77
9,COc1cccc([C@@H]2CC=C(C(=O)O)[C@H](c3ccccc3)N2S(=O)(=O)c2ccc(C)cc2)c1,5.93
10,Cc1ccc(-n2cc(-c3ccccc3)c3c(NN4CCOCC4)ncnc32)cc1,-23.5
11,CCOC(=O)c1cccc(NC(=O)c2ccc3c(c2)C(=O)N(CC2CCCO2)C3=O)c1 (stereo not drawn),-30.3
12,COc1cccc(NC(=O)COC(=O)c2nc(Cl)ccc2Cl)c1,22.5
13,CCN1CCc2c(sc(NC(=S)NC(=O)c3ccc(Cl)cc3)c2C(N)=O)C1,-24.4
14,COc1ccc(-c2ccc(OC)cc2C(=O)O)cc1,-12.5
15,O=c1[nH]c(-c2cccnc2)nc2sc(-c3ccccc3)cc12,7.5
16,CCN(CC)C(=O)C(=O)Nc1ccc(F)c(Cl)c1,19.8
17,O=C(c1ccc(CS(=O)(=O)c2ccc(Br)cc2)o1)N1CCN(c2ccccn2)CC1,-36
18,Brc1ccc(COc2cccc3cccnc23)cc1,8.24
19,COc1ccc(C(=O)CCNc2ccc(C)c(Cl)c2)cc1,-2.55
20,CC1(c2nnc(-c3ccc(F)cc3)o2)CC(c2c(Cl)cccc2Cl)=NO1 (stereo not drawn),-37
21,Nc1nonc1C(=O)NCCNS(=O)(=O)c1ccc(F)cc1,17.5
22,CC1=C(C(=O)OCc2ccccc2)C(c2ccsc2)C(C#N)=C(N)O1 (stereo not drawn),-6.93
23,Cc1cc(N/C(=N/S(=O)(=O)c2ccc(F)cc2)c2ccccc2)n(-c2ccccc2)n1,17.3
24,CC(=O)c1ccc2c(ccc3ccccc32)c1,26.4

# Source: article PMC4336329 (PLoS ONE, 2015)
